Hit rate of the full screen: of about 18,000 compounds, about 1,200 (6.7%) were called active. Another 16% or so got no clear call; they are omitted. Calls follow the shape of the full dose curve; tested in HEK293 cells. Certain results were filed several times, with different values. This is not the full list of results. The source may hold further records. The values listed for one entry are repeats (runs, samples, wells, individuals or studies).
Assay: qHTS for Inhibitors of binding or entry into cells for Marburg Virus
Details: Marburg virus pseudotype entry/binding inhibition, cell-based
Potency is read from the fitted curve at half-maximal effect.

Question: Which Potency does the source give for `COc1c(C)c2c(c(O)c1C/C=C(\C)CCC(=O)O)C(=O)OC2` here?
Answer: active: 398 nM, 1.41 µM, 1.26 µM, 891 nM [separate samples]

— PubChem BioAssay AID720532 (National Center for Advancing Translational Sciences (NCATS), 2013)
